This note sets out measurements from PubChem BioAssay AID488969 (Vanderbilt High Throughput Screening Facility, 2010).

Structures are written as SMILES. The full ranking holds about 110,000 compounds; the median of “z-score” is about -0.1, and the highest 2% start at about 2. This is one part of the list.

For the experiment, the target named is Metabotropic glutamate receptor 8 (Rattus norvegicus) (UniProt P70579). Description: rat mGluR8 modulators via GIRK flux, primary screen, cell-based, thallium flux, HTS (AID 488969). Conditions: HEK293 rat mGluR8, GIRK (G protein-gated inwardly rectifying potassium channel) thallium flux, FluoZin2; at 10 µM; stronger effect = higher value; submaximal glutamate (EC20) added with thallium.
Sequence of UniProt P70579 (P70579 whole entry, looked up): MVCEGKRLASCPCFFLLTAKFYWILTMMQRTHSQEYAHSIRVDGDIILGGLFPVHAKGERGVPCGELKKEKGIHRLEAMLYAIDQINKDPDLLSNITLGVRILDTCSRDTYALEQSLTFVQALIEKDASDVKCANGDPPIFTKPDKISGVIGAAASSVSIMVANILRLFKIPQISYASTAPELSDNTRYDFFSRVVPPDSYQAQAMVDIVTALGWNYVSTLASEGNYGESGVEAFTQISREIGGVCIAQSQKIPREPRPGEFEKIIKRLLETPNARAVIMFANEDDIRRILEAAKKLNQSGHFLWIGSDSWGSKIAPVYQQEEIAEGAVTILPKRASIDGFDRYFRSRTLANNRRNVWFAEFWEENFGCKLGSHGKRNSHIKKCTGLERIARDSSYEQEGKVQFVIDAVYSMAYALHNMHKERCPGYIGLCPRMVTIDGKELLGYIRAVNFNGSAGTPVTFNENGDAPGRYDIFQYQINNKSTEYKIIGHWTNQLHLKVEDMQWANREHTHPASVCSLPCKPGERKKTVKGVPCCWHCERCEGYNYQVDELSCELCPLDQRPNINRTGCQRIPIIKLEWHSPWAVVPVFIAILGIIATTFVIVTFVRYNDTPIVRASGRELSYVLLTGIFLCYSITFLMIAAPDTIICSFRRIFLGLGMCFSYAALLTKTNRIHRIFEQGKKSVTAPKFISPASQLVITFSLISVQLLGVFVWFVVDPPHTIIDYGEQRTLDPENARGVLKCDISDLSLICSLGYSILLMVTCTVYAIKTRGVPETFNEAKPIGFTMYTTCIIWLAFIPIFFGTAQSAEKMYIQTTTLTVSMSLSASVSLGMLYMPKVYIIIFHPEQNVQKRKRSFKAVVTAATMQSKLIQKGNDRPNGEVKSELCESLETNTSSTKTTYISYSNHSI
As to `CCOC(=O)c1c(NC(=O)CN2C(=O)NC3(CCCCC3)C2=O)sc(C)c1-c1ccc(C)cc1`, the z-score is -0.457. For `Cc1c(-c2ccc(F)cc2)[n+](=O)c(-c2ccc(F)cc2)c(C)n1[O-]`, the z-score is -0.375. As for `CC(=O)c1ccc(C#CC(C)(C)O)s1`, the figure is 0.559.

In turn, `O=C(Nc1ccc(N2CCCC2)c(Cl)c1)c1ccc(Br)o1` showed a z-score of 1.42. As to `Nc1[nH]c(N=NC(=O)c2ccccc2)c2ccccc12`, the z-score turned out to be 0.0552. Next, `CC(C)CNC(=O)c1ccccc1Oc1ccccc1`: -0.334; `CC(C)c1nnc(SCC(=O)NCCC2=CCCCC2)n1N`: -0.0723.

On to `Cc1cc(C)c2c(=O)c3c(oc2c1)C(=O)N(CCO)C3c1cccc(O)c1` (centres undefined), for which the z-score was -0.166. Next, `COc1ccc(C(=O)NCCC(C)C)cc1S(=O)(=O)N1CCOCC1`: 0.859; `O=C(CN1CCN(c2ccc(O)cc2)CC1)Nc1cc(S(=O)(=O)N2CCOCC2)ccc1Cl`: 0.903.

Consider `CC(=O)Nc1cc(C(=O)O)ccc1S(=O)(=O)c1ccc(Cl)cc1`, for which the z-score was found to be 0.886. Next, `CNc1nc(Sc2cccc(C(F)(F)F)c2)cc(C(F)(F)F)n1`: 0.018. The compound `CCOC(=O)c1cccc(NS(=O)(=O)c2c(C)[nH]c(=O)[nH]c2=O)c1` showed a z-score of -0.0134.

`CCc1cc(=O)oc2cc(C)c(CN3CCCC(C)C3)c(O)c12` (centres undefined): the z-score is -2.82. As for `Cc1cccc(NC(=O)c2cc(N3C(=O)CCC3=O)ccc2Cl)n1`, the figure is -0.0664; as for `NC(=O)c1cccnc1Oc1cccc(Cl)c1`, 0.168.

Compound `CS(=O)(=O)N1CCC(C(=O)Nc2ccc(Br)cc2F)CC1` registered a z-score of 0.0621.

In turn, `O=C(O)C1Cc2ccccc2CN1S(=O)(=O)c1ccc2ccccc2c1` (centres undefined) gave a z-score of -0.221.

`Cc1cccc(C(=O)Oc2ccccc2/C=N/Nc2ccc([N+](=O)[O-])cc2)c1` showed a z-score of -0.206. As for `c1ccc(N2CCN(c3ncnc4scc(-c5cccs5)c34)CC2)cc1`, the z-score was 0.34. Next, `O=C(c1ccccc1)c1ccccc1N/C=C/c1nnnn1-c1ccccc1`: -0.0671; `Cc1cc(NC(=O)CCC(=O)N(CC(=O)NCC2CCCO2)c2ccc3c(c2)OCCO3)no1` (centres undefined): -0.0148.

In turn, `CCNC(=O)NC(=O)C(C)Sc1nnc(COc2ccccc2Cl)o1` (centres undefined) returned a z-score of -1.08. Compound `Cn1nc(C(F)(F)F)c(/C=N/OCc2c(Cl)cccc2Cl)c1Cl` showed a z-score of 0.0257.
